Some of these densities may be calculated back from excess volumes.
Assay: xn = mol fraction of the nth substance listed
Conditions: 298.15 K, 100 kPa

CC1COC(=O)O1 (centres undefined) + CO
Conditions | mass density [kg/m3]
x1 = 0.0148 | 799.9
x1 = 0.051 | 830.8
x1 = 0.0754 | 850.3
x1 = 0.113 | 878
x1 = 0.1717 | 917.2
x1 = 0.2136 | 942.5
x1 = 0.2529 | 964.4
x1 = 0.2874 | 982.2
x1 = 0.3593 | 1016.1
x1 = 0.3985 | 1032.9
x1 = 0.5135 | 1076.4
x1 = 0.6317 | 1113.8
x1 = 0.7523 | 1146.2
x1 = 0.8694 | 1173.2
x1 = 0.9587 | 1191.6

CC1COC(=O)O1 (centres undefined) + CC(C)O
Conditions | mass density [kg/m3]
x1 = 0.0424 | 800.6
x1 = 0.0666 | 811.8
x1 = 0.1555 | 852.2
x1 = 0.2087 | 876.1
x1 = 0.2656 | 901.3
x1 = 0.3474 | 936.9
x1 = 0.3956 | 957.6
x1 = 0.4301 | 972.2
x1 = 0.4758 | 991.5
x1 = 0.5679 | 1029.6
x1 = 0.608 | 1046
x1 = 0.7571 | 1105.6
x1 = 0.8605 | 1146
x1 = 0.9114 | 1165.7

From a compilation of properties of binary mixtures (doi:10.1021/je960186a)
